Results from PubChem BioAssay AID1434 (Sanford-Burnham Center for Chemical Genomics, 2008).
Where “and” joins values, the source holds several entries; their conditions need not be identical. Equal values may be shown once. The list shows a part of the results. The main result of the screen is listed elsewhere. These columns were measured beside it and carry no call. Most of these compounds were active or inconclusive in the main read-out, so they are no random draw.

These molecules were tested against Runt-related transcription factor 1 (Homo sapiens) + Core-binding factor subunit beta (Homo sapiens) (UniProt Q01196+Q13951) (assay: inhibitors of RUNX1 Runt–CBFb-SMMHC binding, primary screen, biochemical, FRET, Cerulean-Runt, Venus-CBFb-SMMHC, uHTS (AID 1434;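 further: 0% = DMSO wells and 100% = wells with excess untagged CBFb-SMMHC; inhibitors lower the FRET ratio by blocking Runt binding to CBFb-SMMHC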)). Settings: Cerulean-Runt/Venus-CBFb-SMMHC FRET ratio 530/480, 1 h; retest duplicate average; at 20 µM; stronger effect = higher value.
Chain of UniProt Q01196 (Q01196 whole entry, looked up): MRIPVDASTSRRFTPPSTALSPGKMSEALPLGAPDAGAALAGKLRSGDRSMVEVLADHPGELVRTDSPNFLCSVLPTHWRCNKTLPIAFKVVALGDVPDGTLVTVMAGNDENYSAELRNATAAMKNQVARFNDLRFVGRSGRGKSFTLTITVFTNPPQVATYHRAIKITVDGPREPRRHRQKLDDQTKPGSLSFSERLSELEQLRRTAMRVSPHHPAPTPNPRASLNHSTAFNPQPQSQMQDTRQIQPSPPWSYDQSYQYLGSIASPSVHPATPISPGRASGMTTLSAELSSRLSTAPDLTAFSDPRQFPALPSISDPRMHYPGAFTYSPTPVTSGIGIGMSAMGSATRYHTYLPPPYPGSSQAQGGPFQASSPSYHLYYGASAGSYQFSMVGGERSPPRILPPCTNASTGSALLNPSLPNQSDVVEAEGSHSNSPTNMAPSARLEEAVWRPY
Chain of UniProt Q01196 (Q13951 whole entry, looked up): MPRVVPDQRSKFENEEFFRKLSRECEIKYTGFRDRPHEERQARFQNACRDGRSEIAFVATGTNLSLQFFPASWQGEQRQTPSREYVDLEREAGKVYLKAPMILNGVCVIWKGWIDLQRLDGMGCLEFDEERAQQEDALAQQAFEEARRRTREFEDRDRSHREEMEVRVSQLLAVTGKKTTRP

Structure (SMILES) | inhibition
O=C1/C(=C/N(C(=O)c2ccco2)c2ccc(Cl)cc2)Sc2ccccc21 | 58.7%
COc1cccc2c(=O)c3c(cnn3C)n(C)c12 | 71.5%
C=CCc1cc(/C=C/c2nc(O)c([N+](=O)[O-])c(=O)[nH]2)cc(OC)c1O | 101%
CC(C)C(=O)N(c1cc2sc(=O)oc2c2ccccc12)S(=O)(=O)c1cccs1 | 34.8%
O=C(O)C1Sc2[nH]c(=O)sc2C2c3ccc(O)cc3OC(=O)C12 (configuration not stated) | 70.6%
CCC(C)/C=C/C1=CC2=C(Cl)C(=O)C3(C)OC(=O)C(C(=O)C(C)C(C)O)C3C2=CO1 (configuration not stated) | 70.6%
CCCc1c(C)c(C#N)c2nc3ccccc3n2c1NCCCN1CCOCC1 | 54.8%
COc1ccc(C2CC(=O)N3CN(c4ccc(C)c(Cl)c4)CSC3=C2C#N)cc1OC (configuration not stated) | 136%
CCN1CCc2c(sc(NC(=S)NC(=O)c3ccco3)c2C(N)=O)C1 | 152%
CN1CCN(Cc2c(O)ccc3cc(-c4ccccn4)c(=O)oc23)CC1 | 70.6%
Cc1ccc2nc(N3CCN(C(=O)c4cccs4)CC3)c(C#N)cc2c1 | 126%
CC(=O)c1c(N2CCN(C)CC2)nc(=S)n(Cc2ccccc2)c1C | 90.3%
COc1cc2ccccc2nn1 | 70.6%
Nc1cccc2c1C(=O)N(CC(=O)NC13CC4CC(CC(C4)C1)C3)C2=O | 70.6%
CN1c2ccsc2C(O)=C(C(=S)Nc2ccccc2)S1(=O)=O | 97.7%
Cc1cccn2c(=O)c(/C=C(\C#N)C(=O)NCc3ccco3)c(N3CCCCC3)nc12 | 71.5%
CCCCn1c(NC(C)=O)c(C#N)c2nc3ccccc3nc21 | 109%
Cc1ccc(C2=NN=C(NC(=O)CSc3nncn3C)SC2)cc1 | 61%
CCCCCCc1cc2cc(C(=O)Nc3ccccc3)c(=O)oc2cc1O | 147%
COC(=O)C1=CN(CC2CCCO2)C=C(C(=O)OC)C1c1ccsc1 (configuration not stated) | 153%
N=c1oc2ccc3ccccc3c2cc1-c1nnc2n1CCCCC2 | 122%
COC(=O)C1=C(CSc2nc3c(cc2C#N)CN(C)CC3)OC(N)=C(C#N)C1c1ccccc1F (configuration not stated) | 69.8%

Structure (SMILES) | inhibition
CN1CC=C2C(C#N)=C(N)C(C#N)(C#N)C(Cc3ccccc3)C2C1 (configuration not stated) | 71.7%
CNc1nc(-c2cccs2)cc(C(F)(F)F)c1C#N | 70.6%
CN1CCc2c(sc3c2c(NCc2ccco2)nc2nnnn23)C1 | 76.3%
Cn1ccnc1Sc1nc2ccccc2nc1NS(=O)(=O)c1ccccc1 | 89.3%
COC(=O)C1=CN(Cc2cccs2)C=C(C(=O)OC)C1c1cccc(Cl)c1 | 85.9%
CC1CCCN(Cc2c(O)ccc3c4c(c(=O)oc23)CCCC4)C1 (configuration not stated) | 92.6%
CCNC(=O)/C(C#N)=C/c1c(N2CC(C)OC(C)C2)nc2ccccn2c1=O (configuration not stated) | 92%
Cc1ccc2nc3c(cc(S(=O)(=O)c4ccccc4)c(=N)n3Cc3ccco3)c(=O)n2c1 | 70.6%
CN1CCc2cccc3c2[C@@H]1Cc1ccc(O)c(O)c1-3 | 85.5%
C=CCn1c(=N)c(C(=O)NCCCOC)cc2c(=O)n3ccccc3nc21 | 72.9%
CCOC(=O)/C(C#N)=C1/C=C(C)NC(c2ccccc2O)=N1 | 60.9%
CN1CCCN(C(=O)Cc2c(Cl)cccc2Cl)c2nc3ccccc3nc21 | 68.7%
CC1C2(C)OC(=N)C(C#N)(C(C)O2)C1(C#N)C#N (configuration not stated) | 150%
COc1cc(NS(=O)(=O)c2ccc(N/C=C\C(=O)c3ccc(F)cc3)cc2)nc(OC)n1 | 75.3%
Cc1c(Br)c(=O)oc2c(Br)c(O)ccc12 | 70.6%
COc1ccccc1NC(=O)c1cc2ccccc2o/c1=N\O | 70.8%
O=C(O)Cn1c(O)c(C=Nc2ccccc2)sc1=S | 58.4% and 78.2%
Cc1cc(C)c2nc3nc(C)c(C)cc3c(N)c2c1 | 70.6%
CCN1CCN(Cc2c(O)ccc3c2O/C(=C\c2ccc(C)cc2)C3=O)CC1 | 70.6%
CC(C)Sc1nsc2nc(=O)c(/C=C3\C=Nc4ccccc43)c(N)n12 | 60.6%
CNC(=O)/C(C#N)=C/c1c(N(Cc2ccccc2)Cc2ccccc2)nc2ccccn2c1=O | 90.7%
COC(=O)c1c(/N=C/N(C)C)sc2c1CCN(c1ncc(C(F)(F)F)cc1Cl)C2 | 61.6%

Structure (SMILES) | inhibition
O=c1oc2c(CN3CCCCC3)c(O)ccc2cc1-c1nc2ccccc2[nH]1 | 72.9%
CC(C)(O)C1Cc2cc(/C=C/C(=O)O)c(O)cc2O1 (configuration not stated) | 63.3%
N#Cc1cc2c(=O)n3ccccc3nc2n(CCN2CCOCC2)c1=O | 182%
Cc1cccc(-n2c(N)c(C(=O)NCCN3CCOCC3)c3nc4ccccc4nc32)c1 | 72.9%
CCOC(=O)C1CCN(C(=O)c2cc3c(=O)n4ccccc4nc3n2C)CC1 | 53.5%
COc1ccc(Cn2c(N)c(C#N)c3nc4ccccc4nc32)cc1 | 122%
Cc1snc(SCC(=O)c2ccc([N+](=O)[O-])cc2)c1C#N | 54.2%
N#CC1=C(N)SC(N)=C(C#N)C1c1cccc(Oc2ccccc2)c1 | 71.7%
C/C(=N\NC(=O)CC#N)c1cc2ccc(O)cc2oc1=O | 70.6%
CCc1cc(=O)oc2c(CN3CCCC3)c(O)c(Cl)cc12 | 164%
Fc1cccc(NC(=S)NNc2c3ccccc3nc3ccccc23)c1 | 89.8%
CCSc1ccc(-c2nn(-c3ccccc3)cc2/C=C(/C#N)C(=O)NCCCOC)cc1 | 61.6%
CC1(c2ccc(OC(F)F)cc2)NC(=O)N(/N=C/c2c(O)ccc3ccccc23)C1=O (configuration not stated) | 53.7%
Cc1cccn2c(=O)c3cc(C(=O)NC4CCCCC4)c(=N)n(CCN4CCOCC4)c3nc12 | 161%
CCc1ccc2[nH]c3nc(C)cc(C)c3c(=O)c2c1 | 112%
CC(C)COC(=O)/C(C#N)=C/c1c[nH]c2ccccc12 | 56.3%
COC(=O)c1ccc(C(=O)OC)c(N)c1 | 128%
N#Cc1c(NC(=S)NC(=O)c2ccccc2)sc2c1CCN(CCc1ccccc1)C2 | 71.5%
Cc1cc(=O)oc(C)c1C(=O)Nc1ccc2ncccc2c1 | 72.9%
Cc1c(O)ccc2c3c(c(=O)oc12)CCC(C)C3 (configuration not stated) | 135%
C=CCOc1ccc(C2OC34CCCCC3C(C#N)(C#N)C2(C#N)C(=N)O4)cc1 (configuration not stated) | 55.7%
COCCCNC(=S)NCCCNc1nc2cc3c(cc2cc1C#N)OCO3 | 180%

Structure (SMILES) | inhibition
Nc1cccc2nc3ccccc3cc12 | 72.9%
COc1ccccc1[C@@H]1C(c2cccc(Cl)c2)=NN(c2ccccc2)[C@H]1C(=O)N1CCOC1=O | 60.1%
CCOCCCn1c(=NC(=O)c2cccs2)c(C#N)cc2c(=O)n3ccccc3nc21 | 70.6%
CCOC(=O)c1c(NC(=O)C(F)(OC)C(F)(F)F)sc2c1CCN(C)C2 (configuration not stated) | 61.9%
FC(F)(F)c1nnc2c(Sc3ccccn3)nc3ccccc3n12 | 62.5%
CCCn1c(-c2cccs2)nc2nc3ccccc3nc21 | 127%
CCN1C2=C(C(=O)CCC2)C(c2ccc(O)c(Br)c2)C2=C1CCCC2=O | 116%
CC(=O)Nc1ccc(S(=O)(=O)Nc2nc3cc4c(cc3nc2Cl)OCCO4)cc1 | 75.2%
COc1cccc(C(=O)/C=C2\Sc3ccccc3N2C)c1 | 85.5%
CCOc1ccc(C(=O)c2cc3ccc(O)cc3oc2=O)cc1 | 137%
Cc1ccc(C2OC34CCCCCC3C(C#N)(C(=N)O4)C2(C#N)C#N)cc1 (configuration not stated) | 112%
COc1cc(/C=C(\C#N)C(=O)Nc2cccc3ncccc23)ccc1O | 167%
Clc1cncc(Cl)c1NNc1c2ccccc2nc2ccccc12 | 153%
N#Cc1c(-c2ccncc2)c2c([nH]c1=O)-c1ccccc1OC2 | 70.6%
COC(=O)C1=CN(C)C=C(C(=O)OC)C1c1ccsc1 | 127%
CNC(=O)/C(C#N)=C/c1c(N2CC(C)OC(C)C2)nc2ccccn2c1=O (configuration not stated) | 184%
O=C(Nc1nc2c(s1)CN(Cc1ccccc1)CC2)c1c(F)cccc1F | 128%
CCCCCn1c(N)c(C#N)c2nc3ccccc3nc21 | 72.9%
Cc1cc(O)c(-c2cc(O)c(C)cc2O)cc1O | 67.9%
COCCNC(=O)c1c(N)n(-c2cccc(C)c2)c2nc3ccccc3nc12 | 108%
N#Cc1c2c(c(NCc3cccnc3)n3c1nc1ccccc13)CCC2 | 60%
CCOC(=O)Cc1csc(-n2sc3ccccc3c2=O)n1 | 49.7%

Structure (SMILES) | inhibition
CCN1CCc2c(C#N)c(N3CCOCC3)nc(NCc3ccccc3)c2C1 | 71.5%
CCOC(=O)c1cc2ccc(OC(=O)c3ccco3)cc2oc1=O | 71.5%
COc1ccc(OC)c(S(=O)(=O)N(C(C)=O)c2ccc3oc(=O)sc3c2)c1 | 52.7%
Cc1ccc2nc3c(cc(C(=O)NCCCn4ccnc4)n3C)c(=O)n2c1 | 102%
COCC(C)OC(=O)C(C#N)c1nc2ccccc2nc1N1CCN(Cc2ccccc2)CC1 (configuration not stated) | 84.2%
Cc1ccc(S(=O)(=O)c2c(N)n(Cc3ccco3)c3nc4ccccc4nc23)cc1 | 45.7%
O=CN(/C=C1\Sc2ccccc2C1=O)Cc1ccccc1 | 72.9%
Cc1cccn2c(=O)c3cc(C#N)c(=O)n(CC4CCCO4)c3nc12 (configuration not stated) | 72.9%
CC(C)N1CCC2(CC1)C(C#N)=C(N)NC(S)=C2C#N | 60.3%
COc1ccc(C2C3=C(CC(C)(C)CC3=O)N(CCN3CCOCC3)C3=C2C(=O)CC(C)(C)C3)cc1 | 132%
Cc1ccc(S(=O)(=O)NC(C(=O)Oc2ccc3c(C(F)(F)F)cc(=O)oc3c2)c2ccccc2)cc1 (configuration not stated) | 71.5%
O=C(O)C(=O)/C(=C\c1cccc2ccccc12)c1ccc2ccccc2n1 | 82.7%
Cc1cccn2c(=O)c3cc(C(=O)NC(C)c4ccccc4)c(=N)n(CCCn4ccnc4)c3nc12 (configuration not stated) | 70.6%
COc1cccc(C=Nc2ccccc2C(=O)Nc2nccs2)c1OC | 70%
c1ccc(-c2nc(N3CCCCC3)nc3ccccc23)cc1 | 70.5%
COC(=O)C1=CN(C2CC2)C=C(C(=O)OC)C1c1ccc(C(F)(F)F)cc1 | 142%
Cn1c(NNC(=O)c2ccc(C(C)(C)C)cc2)cc(=O)n(C)c1=O | 81%
C=CCn1c(=N)c(C(=O)NCCCOC)cc2c(=O)n3cccc(C)c3nc21 | 72.9%
N=c1c(S(=O)(=O)c2ccccc2)cc2c(=O)n3ccccc3nc2n1Cc1ccco1 | 72.9%
